Experimental data reported in PubChem BioAssay (NCATS).
Several values for one entry are separate records, joined by “and”; a condition that tells them apart may be missing. Equal values may be shown once. Inconclusive means that the source gave no clear call. Such entries were picked first, then a sample of the others. Potencies beside an inconclusive call are fits to weak or partial responses and may not hold up. Activity calls are given as the source filed them. Calls come from the whole dose curve; as a rule, active = well fitted cell-killing curve with a large enough effect; inconclusive = small, poorly fitted or top-dose-only effect, or effect the other way; inactive = no such curve, though single readings can be large or run the other way.

experiment: Viability qHTS for spleen associated tyrosine kinase inhibitor (SYKi) naive MV4-11 cells (AID 1963823); details: MV4-11 AML viability, CellTiter-Glo luminescence, 72 h; series mostly up to 45 µM; note: nearly all actives have a fitted effect of over 40% in size
Procedure, shortened: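 Cells: MV4-11, SYK inhibitor naive, 500 per well. Treatment: library compounds, 72 hr, 37 C, 5% CO2. Read-out: CellTiter-Glo luminescence after 10 min RT.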
Potency is the fitted concentration of half-maximal effect; tags give direction and shape of the fitted curve.

SMILES	Potency
CCC/C=C/C(=O)O[C@H]1CC(C)(C)CC2[C@@]13[C@H](O)C[C@]1(C)[C@@]2(CCC2[C@@]4(C)CC[C@H](O[C@@H]5O[C@H](C(=O)O)[C@@H](O)[C@H](O[C@@H]6O[C@H](CO)[C@H](O)[C@H](O)[C@H]6O[C@@H]6O[C@@H](C)[C@H](O)[C@@H](O)[C@H]6O[C@@H]6OC[C@](O)(CO)[C@H]6O)[C@H]5O[C@@H]5O[C@H](CO)[C@H](O)[C@H](O)[C@H]5O)C(C)(C)C4CC[C@]21C)O[C@H]3O (stereo not given in full)	inconclusive: 2.45 µM [cytotoxic, single point]
CN1CCN(c2ccc3nc(-c4cc(C(C)(C)C)c(OCCCC(=O)NCCCN=[N+]=[N-])c(C(C)(C)C)c4)[nH]c3c2)CC1	active: 5.25 µM
COc1ccc(CCO[C@@H]2O[C@H](CO[C@@H]3OC[C@H](O)[C@H](O)[C@H]3O)[C@@H](O)[C@H](O)[C@H]2O)cc1	inactive
C[C@@H]1O[C@@H](O[C@H]2CC[C@@]3(C)C(CC[C@]4(C)C3CC=C3[C@@H]5CC(C)(C)CC[C@]5(C(=O)O[C@@H]5O[C@H](CO)[C@@H](O)[C@H](O)[C@H]5O)CC[C@]34C)[C@]2(C)CO)[C@H](O)[C@H](O[C@@H]2O[C@H](CO)[C@@H](O)[C@H](O)[C@H]2O)[C@H]1O (stereo not given in full)	inconclusive: 3.1 µM [cytotoxic, partial curve]
Oc1cc(O)cc(/C=C/c2ccc(O)c(O)c2)c1	active: 5.9 µM and active: 5.17 µM
O=C(O)Cc1ccc(-c2ccccc2)cc1	inactive
C=CC(C)(C)C1(CC2NC(=O)C3CCCN3C2=O)C(=O)Nc2cc3c(cc21)C=CC(C)(C)O3 (stereo not given)	inconclusive: 3.99 µM [cytotoxic, partial curve, poor fit]
CC1(C)CC2C(O)C3=C(CC(C)(O)C2C1)C(=O)OC3O (stereo not given)	inactive
C=C1C(=O)O[C@@H]2C[C@@]3(C)CCC[C@H](C)C3=C[C@H]12	active: 13 µM
COc1ccccc1Oc1c(NS(=O)(=O)c2ccc(C)cn2)nc(-c2ccncc2)nc1OC	inconclusive: 0.259 µM [cytotoxic, partial curve, poor fit]
Cc1onc(-c2ccccc2)c1C(=O)N[C@@H]1C(=O)N2[C@@H]1SC(C)(C)[C@@H]2C(=O)O	inactive
CC(=O)OC1CC(C)C2(CCC3(CC(=O)OC3O)O2)C2(C)CCCC(C)(C)C12 (stereo not given)	inconclusive: 7.96 µM [cytotoxic, partial curve, poor fit]
C=C[C@H]1[C@H](O[C@@H]2O[C@H](CO)[C@@H](O)[C@H](O)[C@H]2O)OC=C(C(=O)OC)[C@H]1C/C=C(/C=O)[C@@H]1C(C(=O)OC)=CO[C@@H](O[C@@H]2O[C@H](CO)[C@@H](O)[C@H](O)[C@H]2O)[C@@H]1C=C	inactive
C/C=C/C=N/NC(=O)c1ccncc1	inconclusive: 0.0075 µM [cytotoxic, full curve, poor fit]
CC1=CC(=O)C2C(C)(C)CCC[C@]2(C)[C@H]1CO (stereo not given in full)	inactive
COc1ccc(-c2nc(-c3cc(C(F)(F)F)cc(C(F)(F)F)c3)n(Cc3ccc(C(N)=O)cc3)c2-c2ccc(OC)cc2)cc1	active: 7.31 µM
CN(C)CCC(c1ccccc1)c1ccccn1 (stereo not given)	inactive
CC(C)(C)NCC(O)COc1cccc2c1CCCC2=O (stereo not given)	inconclusive: 0.326 µM [rising, full curve]
CC1=C2CC(C)(C)CC2C(O)C2=C(C1)C(=O)OC2O (stereo not given)	inconclusive: 13 µM [cytotoxic, partial curve, poor fit]
Cc1cc(C(=O)N2Cc3cnn(C)c3Nc3ccccc32)ccc1CNC(=O)N1CCN(Cc2cc(O)cc(O)c2)CC1	inactive

SMILES	Potency
COc1cc(C2Oc3c(O)cc(CCCO)cc3C2CO)ccc1O[C@H]1O[C@H](C)[C@@H](O)[C@H](O)[C@@H]1O (stereo not given in full)	inactive
CC1=CC(=O)[C@]2(O[C@@H]3O[C@@H](C)[C@H](O)[C@@H](O)[C@H]3OC(=O)/C=C/c3ccccc3)C=CO[C@@H](O[C@@H]3O[C@H](CO)[C@@H](O)[C@H](O)[C@H]3O)[C@H]12	inactive
COc1ccc(S(=O)(=O)Nc2c(C)cc(C)cc2C)cc1	inconclusive: 23.1 µM [cytotoxic, partial curve]
CN(C)CCC[C@@]1(c2ccc(F)cc2)OCc2cc(C#N)ccc21	inconclusive: 4.22 µM [cytotoxic, partial curve]
O=C(O)c1ccc(S(=O)(=O)N(Cc2ccc(OC(F)(F)F)cc2)c2ncc(C(F)(F)F)cc2Cl)cc1	active: 20.6 µM
C=C1C(=O)O[C@@H]2[C@H]1CCC(C)=C1CCC(=O)O[C@]12C	inconclusive: 5.17 µM [cytotoxic, full curve]
CSCC[C@H](NC(=O)[C@H](CCSC)NC(=O)CNC(=O)[C@H](Cc1ccc(O)cc1)NC(=O)[C@H](Cc1ccccc1)NC(=O)[C@H](CCCN=C(N)N)NC(=O)[C@H](CC(=O)O)NC(=O)[C@@H]1CCCN1C(=O)[C@H](CC(=O)O)NC(=O)[C@@H]1CCCN1C(=O)[C@@H]1CCCN1C(=O)[C@@H](N)CC(=O)O)C(N)=O	inactive
CC1=CC(=O)CC(C)(C)[C@@]1(O)/C=C/C(C)O[C@@H]1O[C@H](CO)[C@@H](O)[C@H](O)[C@H]1O (stereo not given in full)	inactive
O=c1[nH]c2ccccc2c(=O)n1CCCl	inactive
O=C1c2ccccc2-c2c(NCCc3ccccc3)c(=O)[nH]c3cccc1c23	inconclusive: 16.4 µM [cytotoxic, partial curve]
O=C(Nc1cccc(Nc2cc(Nc3cccc(C(F)(F)F)c3)ncn2)c1)C1CC1	active: 0.164 µM
CCN(CC)CCOCCOC(=O)C(CC)(CC)c1ccccc1	inconclusive: 23.1 µM [cytotoxic, partial curve]
Cc1cc2c(F)c(Oc3ncnn4cc(OCC(C)O)c(C)c34)ccc2[nH]1 (stereo not given)	inconclusive: 7.31 µM [cytotoxic, partial curve]
C[C@@H]1CCCN1CCc1cc2cc(-c3ccc(C#N)cc3)ccc2o1	inconclusive: 16.4 µM [cytotoxic, partial curve]
C=C1C(=O)OC2CC(COC(=O)C(C)C)=C(C(C)CCCOC(C)=O)[C@@H](OC(C)=O)C12 (stereo not given in full)	inconclusive: 10 µM [cytotoxic, single point]
O=C(Nc1ccc(-c2ccnc(Nc3ccc(N4CCOCC4)cc3)n2)cc1)C1CCCN1 (stereo not given)	inconclusive: 0.731 µM [cytotoxic, full curve]
O=C(/C=C\c1ccc(O)cc1)N[C@@H](Cc1ccc(O)cc1)C(=O)O	inactive
C/C=C/C=C/C(=O)OC1CC/C=C/C(O)C(O)C(CCC)OC1=O (stereo not given)	inconclusive: 20.2 µM [cytotoxic, single point]
C=C1C(OC2OC(CO)C(O)C(O)C2O)CC2C(C)(C)C(O)CCC2(C)C1CC/C(C)=C\COC(=O)CC(=O)O (stereo not given)	inconclusive: 4.32 µM [cytotoxic, partial curve, poor fit]
CO[C@H]1/C=C\O[C@@]2(C)Oc3c(C)c(O)c4c(O)c(c5c(nc6cc(C)ccn65)c4c3C2=O)NC(=O)/C(C)=C\C=C/[C@H](C)[C@H](O)[C@@H](C)[C@@H](O)[C@@H](C)[C@H](OC(C)=O)[C@@H]1C	inconclusive: 13 µM [cytotoxic, partial curve]
